Self-cleavage data for 167 variants are collected here from the RNAGym collection of RNA variant scans (doi:10.1093/nar/gkz1192).

Read counts are not given, so values of variants with three or more changes are uncertain.

B1: CPEB3 Ribozyme (parent)
chain: UAACAGGGGGCCACAGCAGAAGCGUUCACGUCGCAGCCCCUGUCAGAUUCUGGUGAAUCUGCGAAUUCUGCUGUAUAUCUC

The variants in the data set derive from B1. Description: self-cleavage, relative activity (ratio to wild type); higher = more cleavage; in vitro, sequencing. The gist of the method: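 Relative activity was defined as the cleaved/total read fraction for a variant divided by the same fraction for the unmutated ribozyme. CPEB3 self-cleaving ribozyme libraries were made by rounds of error-prone PCR, barcoded, and transcribed in vitro with T7 RNA polymerase for 5 hours at 37°C, and cleavage ran through transcription plus a 15 min DNase I step before EDTA. Illumina sequencing of template-switched reverse transcripts gave the reads, and DNA sequencing mapped the barcodes. Averages come from three batches, using variants with at least 5 reads.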
On to U48C U51A U72C, for which the self-cleavage amounted to 0.3.

On to A47U U58C U69A, for which the self-cleavage was 0.12. To U48C A56G U78C belongs 0.38; to U48G U49C U69C U76A A77U, 0.05; to U51C U58C G63C, 0.47. To U48C U51A U66C belongs 0.26.

Take U48A A65G U69C A75U: the self-cleavage was 0.14. To A47G U74C A75G belongs 1.27; to U51C A75U U76A, 1.2; to A47U A56U U76A, 0.14.

On to G46C U60G U76C, for which the self-cleavage came out at 0.23.

In the case of A47G A57G U80C, the self-cleavage was found to be 0.57.

Turning to A56C U72C C81U, the self-cleavage was found to be 0.29.

With U51C A56U U60C U72C, the self-cleavage was determined as 0.17.

Take G46A A64C U78C: the self-cleavage was found to be 0.14.

Turning to U51C G61A A77C, the self-cleavage was determined as 0.42. With A47G G55A U76A the figure was 1.08; with A47U U72G U78A, 0.2. With A47G A57G U60C U72C the figure was 0.1; with A56G U60A A64U U80C, 0.14; with U51A U67C U72C, 0.25. To A56G U74A U76C belongs 1.22; to G53A U72A A75G, 1.26. As for A47G U60C U78C, the self-cleavage is 0.34. Turning to U48C U54A U66C, the self-cleavage amounted to 0.17. With U51G A56G G70C the figure was 0.12. To U54C U72A G73U belongs 1.2; to A47G C59U U80C, 0.39; to A47G U51C C68U U76C, 1.04. With G53A A65C A75C the figure was 0.18.

Consider A47G U51A U80C, for which the self-cleavage is 0.67. Regarding G52C U60C U67A, the self-cleavage was 0.39. With A47G U48C U67C the figure was 0.15; with U51A A65G U80C, 0.23.

Consider U51C U54C A56G, for which the self-cleavage was determined as 0.74. As to A47U U60C U72C, the self-cleavage was 0.11.

As for U54C A65G U80A, the self-cleavage was 0.44. For U54A U58A C59U, the self-cleavage worked out at 0.45.

With U48C U66C U72C A77G, the self-cleavage was found to be 0.17. With A56G A57G U72A the figure was 0.24; with U51C U76C A77G, 1.13; with U51C U66C U78A, 0.55. To U48C A57U U58C U60A A75G belongs 0.37; to A56G U69A G73U, 0.93. To A47U U54C A57G U67C belongs 0.12; to U49C U60C U80A, 0.19. U51C C71A U72C: the self-cleavage turned out to be 0.52.

For U51C C59A A64G U78C, the self-cleavage was 0.34.

Consider U51C A64U U67C U72C, for which the self-cleavage amounted to 0.52. With G55A A56U A64G the figure was 0.65.

With A47G U48C U72C, the self-cleavage was determined as 0.45. Take A47G A56G C59A U69C: the self-cleavage is 0.27. To U49C C71A A77G belongs 0.12; to A56G A65G U74C, 0.44; to A47G U48C U58C A64G, 0.49. With U54C A64G C79U, the self-cleavage was found to be 1.11.

With G52A U60C U72A, the self-cleavage was determined as 0.41. Regarding U49C U51C G52U, the self-cleavage stood at 0.15.

For U51A U66C U67C U72C, the self-cleavage came out at 0.46.

On to A47U U54C A75G, for which the self-cleavage is 0.2. With U51G A64U U78C the figure was 0.2; with U54A G63C A65G U74C, 0.47. On to U51A U58C A65G, for which the self-cleavage amounted to 0.46. Take G53A A57G U78C: the self-cleavage is 0.65. To A56G U58C U76A belongs 0.33. A47G U60C U80C: the self-cleavage was found to be 0.32. With U54C C59A U66C the figure was 0.13. With G55U A65G U69C U80C the figure was 0.16; with G46A U48C U72G A77G, 0.14; with G52U A64G U67C, 0.13. Regarding G55U U60C A77U, the self-cleavage worked out at 0.38. U48A U60C U78A: the self-cleavage is 0.17. A56U A64G U78C: the self-cleavage came to 0.39. To A47G A56G U78A belongs 0.76; to U49C G61A A64G U67C U69A, 0.12; to U49C G63U C79U, 0.35. With C50U G73U A75U the figure was 1.29; with G53A A57G U58C, 0.36; with U51C U60A A77G, 0.34. With U54C U66A U72A the figure was 0.45. Turning to A47G A56G U60A A64G, the self-cleavage came to 0.23.

A56U U60A U67C U76C U78C: the self-cleavage came out at 0.14. With U51A U54C U76C the figure was 1.14; with A47G U51C U66C, 0.34; with U48C U49C U69A, 0.08. Turning to A47G U49A U51A C62U, the self-cleavage turned out to be 0.07. To U49A C68A U72C belongs 0.43; to A47U U48C U78A, 0.19.

In the case of U49A U69C U76C, the self-cleavage is 0.22. With U48A A64G U67C the figure was 0.14; with U49C A64G U69C, 0.15; with A47G U54A A65G, 0.16. To U54A A65G U69C belongs 0.3; to U54C U66C U69C U74C, 0.21. To U54C U69A U80C belongs 0.53. On to U54A A65U U76A, for which the self-cleavage was 0.21. On to A47G C68A U80A, for which the self-cleavage came to 0.37.

U48C U60C U80C: the self-cleavage turned out to be 0.45. Take U48C C68A U69C: the self-cleavage was 0.25.

As for A47G C62U U69C, the self-cleavage was 0.3. To U48C U54G A64U U80C belongs 0.12. With U49C U69A U72A the figure was 0.13; with G55A U60C U80C, 0.23. U51C U54C U60C C62U: the self-cleavage was found to be 0.47. To U54C A56G A77U U78C belongs 0.47; to A56G A57G U69C U74C U78A, 0.13. For U49A A57G U66C, the self-cleavage worked out at 0.14.

As for U51C U54C A56U U66A, the self-cleavage worked out at 0.27.

Turning to U54C U60G U67A, the self-cleavage came to 0.17.

In the case of U48C U49C U51A, the self-cleavage is 0.08. To U48C A57G U58C belongs 0.7. With U51C A57G U60A U67A U76A A77U the figure was 0.32; with U51C U72A A75G, 0.95; with A47G U54A C59U, 0.99. With A47U U51C U66A U72A the figure was 0.14; with G52A U58C U67C, 0.34. Consider U51C G52U A56G, for which the self-cleavage worked out at 0.83. With U51G A65G U80C the figure was 0.33. With A47U U51C G55C A56U U60C the figure was 0.25; with G55A A57G U66C A77G, 0.13; with G52A U66C U78C, 0.51. To A47U G55A A56G G70A belongs 0.1; to U49A U72A U78C, 0.61. Turning to G55U U66A C71U, the self-cleavage was 0.29.

For U49C U66C U78C, the self-cleavage amounted to 0.18. With C50U U51C U78C the figure was 0.86; with U51A U54G A77U, 0.43. To A56U A57G C71U belongs 0.37; to U51A G52C U60G A65G, 0.6. Take G46A A64U U69C: the self-cleavage stood at 0.15. To U54C U72C G73A belongs 1.26; to U49C A65G U67C, 0.42. To U49C U60G A65G belongs 0.18; to U49C C62U G73A, 0.04; to A47U A64G U78C, 0.3. Take U54A A56G U67A U80C: the self-cleavage stood at 0.51. On to U48A U69C U76G, for which the self-cleavage worked out at 0.17. To U49C U69G U78C belongs 0.22. To U51C U74G A77U belongs 1.28; to U49A A65G G70C, 0.14. With C50A U60C U66G the figure was 0.21; with U51A U60C U72C A77G, 0.63; with U54G G61A U67C, 0.39. U54C C68A A77G: the self-cleavage worked out at 0.42. With A56U U67A U72A U80C the figure was 0.29. As for A56G U76C U80C, the self-cleavage stood at 0.93. With U51G U54C U60C the figure was 0.51; with U48C C62U A64U C81A, 0.2.

As for U51A C59U U69C U78C, the self-cleavage was determined as 0.6. To A56G U58A U69C belongs 0.47; to U54A A64U U80C, 0.37; to U48C U54C A65C U67C, 0.12. To A56U U58C U80C belongs 0.21; to U48C A57G C68U, 1.16. For the variant A56G A64C A65G U69A, the self-cleavage came out at 0.14.

Take U51C A64G A77G U78C: the self-cleavage is 0.54. With A47U A57U G73A the figure was 0.77; with U48A A64U A65G, 0.09.

As for A56U U72A U78C U80C, the self-cleavage stood at 0.5.

Regarding A47G A64U U78G, the self-cleavage came out at 0.16. With A47G A56U U74C the figure was 0.52; with A47U A56G U58C, 0.32; with U54G C62U U76C, 0.19.

With U54A U72C U78C, the self-cleavage turned out to be 1.14. In the case of U54A A57G U80C, the self-cleavage is 1.04. To A47G C62A U67C U76C belongs 0.41; to U48C U51A U69C U72G, 0.2.
